Assay results taken from PubChem BioAssay AID686978 (National Center for Advancing Translational Sciences (NCATS), 2013).
Among all 420,000 compounds or so, about 64,000 (15%) were called active. Inconclusive results, whose numbers are uncertain, are shown with a selection of clear calls. Calls follow the shape of the dose curve; as a rule, active = well fitted inhibition curve with a large enough effect; inconclusive = small, poorly fitted or top-dose-only effect; inactive = flat fitted curve, though single readings scatter. Potencies of inconclusive entries are left out as doubtful fits.

experiment: qHTS for Inhibitors of human tyrosyl-DNA phosphodiesterase 1 (TDP1): qHTS in cells in absence of CPT; conditions: DT40 Tdp1-/- hTDP1 cells, no CPT, ATP luminescence, 48 h; activity change, negative = growth inhibition: at 46.2 µM (top of the series) unless noted; also: nearly all actives have a fitted effect of over 55% in size
Procedure, shortened: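 Growth of hTDP1-complemented DT40 Tdp1-knockout cells is measured by ATP luminescence after at least 48 hr compound exposure at 37 °C, with DMSO substituting for the 20 nM CPT used in the parallel screen.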
% is scaled to controls: 0 for no effect and ±100 for the full control effect; potency is read from the fitted curve at half-maximal effect; tags tell the direction and shape of the fitted curve.

Compound	Potency	activity change, negative = growth inhibition
CCCCn1c(SCc2nc3ccccc3s2)nc2ccccc2c1=O	active: 8.2 µM	
CC1=C(C(=O)N(C)C)CC(CC(=O)NCCCCc2ccccc2)C(=O)N1Cc1ccccc1 (stereo not given)	inconclusive [inhibitor, single point]	
CCc1cccc2c1NC(=O)C2(O)CC(=O)c1cccs1 (stereo not given)		inactive: -19.2%
CN(CC(=O)N1CC=C(c2ccccc2)CC1)S(=O)(=O)c1cnc[nH]1		inactive: -20%
CCOC(=O)C(C)Sc1nnc2cc(C)c3ccccc3n12 (stereo not given)	inconclusive [inhibitor, single point]	
COc1ccc2oc(-c3cccc(NC(=O)c4cc([N+](=O)[O-])ccc4N4CCOCC4)c3)nc2c1	inconclusive [inhibitor, single point]	
O=C(NCCOc1ccccc1)c1cc([N+](=O)[O-])ccc1N1CCOCC1	active: 1.64 µM	
O=C(COC(=O)c1ccc2ccccc2c1O)NCc1ccccc1	inconclusive [inhibitor, single point]	
CCNC(=O)NC(=O)C(C)Sc1nc2ccccc2n1CC(C)C (stereo not given)	active: 16.4 µM	
O=S(=O)(Cc1ccccc1)C(c1ccccc1)S(=O)(=O)Cc1ccccc1	inconclusive [inhibitor, single point]	
O=C(Nc1nnc(S(=O)(=O)N2CCN(c3ccc(F)cc3)CC2)s1)c1ccco1	inconclusive [inhibitor, single point]	
Cc1ccc(S(=O)(=O)N(C)CC(=O)NCCc2c[nH]c3ccccc23)cc1	inconclusive [inhibitor, single point]	
COc1ccc(C2Sc3nncn3N2Cc2ccc(C#N)cc2)cc1 (stereo not given)		inconclusive: -30.1% [inhibitor]
O=C(Nc1ccc(S(=O)(=O)Nc2nccs2)cc1)c1ccc(F)c(S(=O)(=O)N2CCOCC2)c1	inconclusive [inhibitor, partial curve]	
COc1ccc(OC)c(-c2cc(C(=O)Nc3c(C)nn(Cc4ccc(C)cc4)c3C)no2)c1	active: 18.4 µM	
CCN(CC)S(=O)(=O)c1ccc(C(=O)NC2=NCCS2)cc1	inconclusive [inhibitor, single point]	
COCCn1c(=O)c(-c2ccc(F)cc2)nc2cnc(Oc3ccccc3)nc21		inactive: 1.92%
CCOc1ccc(C2NC(=O)c3sc(=S)n(-c4ccccc4)c3N2)cc1 (stereo not given)	inconclusive [inhibitor, partial curve]	
Cc1cc(C)nc(SCC(=O)c2ccc(O)c(O)c2)n1	inconclusive [inhibitor, single point]	
Cc1ccc(-n2ncc3c(NCCCN(C)C)ncnc32)cc1Cl	inconclusive [inhibitor, single point]	
O=C(C[C@H]1C/C=C\C[C@H](NC(=O)OCC2c3ccccc3-c3ccccc32)C(=O)OC[C@@H]2CCCN2C1=O)NCCO	active: 5.8 µM	
O=c1oc2ccccc2c2c1ccc1ccccc12	inconclusive [inhibitor, partial curve]	
COc1cc2cc(C(c3nnnn3C(C)(C)C)N3CCC(C)CC3)c(=O)[nH]c2cc1OC (stereo not given)		inactive: 8.9%
COC(=O)c1ccc(Oc2nc(Nc3ccccc3)nc(N(C)C)n2)cc1	active: 20.6 µM	

Compound	Potency	activity change, negative = growth inhibition
O=C(/C=C/c1ccco1)NC(=S)Nc1ccccc1N1CCCC1	active: 20.6 µM	
COc1ccc2c(CNCCc3ccco3)c(C(=O)O)n(Cc3ccc(C)cc3)c2c1	inconclusive [inhibitor, single point]	
O=C(CCC1CCCN(C(=O)c2cccnc2)C1)NCc1ccccc1F (stereo not given)		inactive: -10.5%
CCCCN(C=O)c1c(CC)nc2c(OCCC3CCCCC3)cccn12	active: 9.2 µM	
CC(C)CNC(=O)CCc1nc(-c2ccccc2)no1	inconclusive [inhibitor, single point]	
O=C(CCC(=O)n1ncc2ccccc21)N1CCCCC1		inactive: -7.61%
O=C(CNc1ccc(F)cc1)N/N=C1\CCCc2ccccc21	inconclusive [inhibitor, single point]	
CCOC(=O)[C@]12Cc3c(cc(OC)c(OC)c3OC)[C@H]1N(Cc1ccccc1)C(=O)c1cc(F)c(F)cc12	active: 25.9 µM	
CC(C)(C)OC(=O)N1CCCC(C(=O)Nc2ccc(C(=O)NCc3ccccc3)cc2)C1 (stereo not given)	inconclusive [inhibitor, partial curve]	
COc1ccc(CC(=O)OCC(=O)Nc2ncc(Cl)c(C)c2Cl)cc1		inactive: -1.4%
C=CCS/C(N)=N\N=C\c1cc(Br)cc([N+](=O)[O-])c1O	active: 7.31 µM	
O=C1c2ccccc2C(=O)N1CC1c2ccccc2CCN1S(=O)(=O)c1ccccc1 (stereo not given)	inconclusive [inhibitor, partial curve]	
Cc1ccc(NC2=NC(c3ccccc3)n3c(nc(C)cc3=O)N2)c(C)c1 (stereo not given)		inactive: -7.25%
CCn1nnc(NC(=O)c2cccc(-c3cc4ccccc4oc3=O)c2)n1	inconclusive [inhibitor, single point]	
COc1cc2c(cc1OC)CN(C1CCCN(Cc3cc(Cl)ccc3O)C1)CC2 (stereo not given)	inconclusive [inhibitor, single point]	
CC(C)(C)c1cc2nc(NCCOc3ccccc3)ccn2n1	inconclusive [inhibitor, single point]	
CCOC(=O)c1c(N/N=C/c2ccncc2)n[nH]c1C		inactive: -22%
COc1ccc(NC(=O)c2oc3ccccc3c2C)c(OC)c1	inconclusive [inhibitor, single point]	
COc1ccc(/C=C2\Sc3ccc(C(=O)N4CCN(Cc5ccccc5)CC4)cc3N(C)C2=O)cc1OC	active: 3.26 µM	
CCN(CC)S(=O)(=O)c1cccc(NC(=O)c2cc(=O)[nH]c3ccccc23)c1	inconclusive [inhibitor, single point]	
CCC1SC2=NCCN2C1(O)c1ccc(Cl)cc1 (stereo not given)	inconclusive [inhibitor, single point]	
COc1ccc(Br)c(Cn2c(C)c(C(=O)NCc3cccs3)sc2=O)c1	inconclusive [inhibitor, single point]	
O=C(O)c1ccc2c(c1)C(=O)N(c1cccc3ccccc13)C2=O	inconclusive [inhibitor, full curve, poor fit]	
O=[N+]([O-])c1cc(S(=O)(=O)N2CCCC2)ccc1N/N=C/c1ccccn1	inconclusive [inhibitor, partial curve]	

Compound	Potency	activity change, negative = growth inhibition
COc1ccc(NC(=O)c2oc3ccccc3c2NC(=O)C2CC2)cc1	inconclusive [inhibitor, single point]	
Cc1ccc(CN2CCC(CNC(=O)c3cnn(-c4ccc(C)cc4)c3C3CCN(C(=O)OC(C)(C)C)CC3)CC2)cc1	inconclusive [inhibitor, single point]	
O=C(c1ccc(S(=O)(=O)Cc2cc(F)ccc2F)c([N+](=O)[O-])c1)N1CCOCC1	active: 7.31 µM	
CC1(C(=O)OCC(=O)Nc2ccc(S(=O)(=O)N3CCOCC3)cc2)CC1(Cl)Cl (stereo not given)		inactive: -20.4%
Cc1nn(-c2ccc(F)cc2)c(C)c1CN1CCN(CCC(C)C)C(CCO)C1 (stereo not given)		inactive: -10.2%
O=C(CC1SC(=Nc2ccccc2)N(CCc2ccccn2)C1=O)Nc1ccc(F)cc1 (stereo not given)	inconclusive [inhibitor, single point]	
Cc1cccc(NC(=O)CCCn2nc(C)c3c(C)n(-c4ccccc4)nc3c2=O)c1C		inactive: -27.7%
COc1ccc(NC(=O)CC2C(=O)N(c3ccccc3)C(=O)N2CCc2sccc2C)cc1 (stereo not given)	active: 16.4 µM	
CCc1ccccc1NC(=O)c1sc2nc(C)cc(C)c2c1N	inconclusive [inhibitor, single point]	
CSCCC(NC(=O)c1ccccc1Cl)C(=O)N(C)Cc1cccs1 (stereo not given)	inconclusive [inhibitor, partial curve, poor fit]	
COc1cccc(-c2cnc(C(O)c3ccc(OC)c(F)c3)[nH]2)c1 (stereo not given)		inactive: -16.6%
C=CCNC(=S)N1CCC(C(=O)c2ccc(Cl)cc2)CC1	inconclusive [inhibitor, partial curve]	
Cc1ccc(NS(=O)(=O)c2ccc3c(c2)NC(=O)CCS3)c(Cl)c1		inactive: -13.1%
Cc1ccccc1OCCNC(=O)/C=C/c1ccc([N+](=O)[O-])cc1	inconclusive [inhibitor, single point]	
C=C1[C@@H](OC(C)=O)CC[C@]2(C)[C@@H]1C[C@@H]1C[C@H](OC(C)=O)C(C)=C([C@@H](OC(C)=O)[C@@H]2OC(C)=O)C1(C)C	inconclusive [inhibitor, single point]	
O=S(=O)(Nc1ccc(C(F)(F)F)cc1)c1cnc[nH]1	active: 23.1 µM	
CCCC1NC(=O)c2cc3ccccc3cc2-n2c1nc1cc(F)ccc1c2=O (stereo not given)	active: 20.6 µM	
Cc1ccc(C(=O)N(Cc2ccco2)c2c(N)n(Cc3ccccc3)c(=O)[nH]c2=O)cc1	inconclusive [inhibitor, single point]	
ClCc1nc2ccccc2c2ccccc12	active: 2.59 µM	
COC(=O)[C@]12CCCCC=C1N(Cc1ccc(Cl)cc1Cl)C(=O)[C@H](CC(=O)NCc1cccs1)C2	active: 23.1 µM	
Cc1cc(=O)n(CC(=O)Nc2ccc(Cl)c(Cl)c2)c(-n2nc(C)cc2C)n1	active: 16.4 µM	
O=C(N/N=C/c1cc(Cl)c(O)c(Cl)c1)c1cc2c(ccc3ccccc32)o1	inconclusive [inhibitor, single point]	
